Results as given in PubChem BioAssay AID493208 (National Center for Advancing Translational Sciences (NCATS), 2011).
The campaign covered roughly 44,000 compounds. About 340 (0.77%) were called active. Inconclusive results, whose numbers are uncertain, are shown with a selection of clear calls. Calls come from the whole dose curve; as a rule, active = well fitted inhibition curve with a large enough effect; inconclusive = small, poorly fitted or top-dose-only effect; inactive = flat fitted curve, though single readings scatter. Potencies of inconclusive entries are left out as doubtful fits.

Assay: Acumen qHTS Assay for Inhibitors of the mTORC1 Signaling Pathway in MEF (Tsc2-/-, p53-/-) Cells: Sytravon; note: nearly all actives have a fitted effect of over 50% in size
Conditions: phospho-rpS6 immunofluorescence/PI, 24 h; series mostly up to 38.3 µM
In short: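 Immunofluorescence of rpS6 phosphorylation in Tsc2-/-, p53-/- MEFs after 24 h compound exposure, normalized to propidium iodide signal. Activity is expressed as % positive cells, thresholded with 7.5 nM rapamycin.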
Potency is the fitted concentration of half-maximal effect; tags give direction and shape of the fitted curve.

Compound | Potency
Cc1ccc(S(=O)Cc2nc(-c3ccc(C(=O)NC(C)c4ccccc4)cc3)oc2C)cc1 (stereo not given) | inactive
COc1cccc(CCNc2ncnc3c2nnn3C)c1 | inconclusive [falling, partial curve, poor fit]
CCc1ccc(CNC(=O)Cc2c(C(=O)O)c(C)cn2C)cc1 | inactive
CCc1nnc(SCc2nc(-c3ccccc3)oc2C)c2cc3sccc3n12 | inconclusive [falling, partial curve, poor fit]
Nc1c(C(=O)Nc2ccc(Cl)cc2F)sc2nc(-c3cccs3)ccc12 | inconclusive [falling, single point]
Fc1ccc(CNc2cc(-c3ccccc3)nc3nncn23)cc1 | inconclusive [falling, partial curve, poor fit]
N#Cc1ccc(-c2cccs2)nc1SCC(=O)Nc1cccc(C(F)(F)F)c1 | inconclusive [falling, single point]
COc1ccccc1C1c2c(-c3ccc(Cl)cc3)n[nH]c2C(=O)N1c1ccc(C)cc1 (stereo not given) | inconclusive [falling, single point]
Cc1ccccc1S(=O)(=O)Cc1ccc(C(=O)N2CCN(c3cccc(Cl)c3)CC2)o1 | inconclusive [falling, single point]
CCCc1nn2c(=O)cc(COC(=O)c3ccc(NC(=O)COc4ccc(F)cc4)cc3)nc2s1 | inconclusive [activator, partial curve, poor fit]
Cc1cccc(NC(=O)Cn2cc(C(=O)C3CCCCC3)c3ccccc32)c1 | inconclusive [falling, partial curve, poor fit]
O=C(CSc1cn(CC(=O)N2CCCC2)c2ccccc12)Nc1ccc(Cl)cc1 | inconclusive [falling, full curve]
COc1ccc(Cl)cc1NC(=O)c1cc2c(=O)n3ccccc3nc2s1 | inactive
CN(c1ccccc1)S(=O)(=O)c1ccc(NC(=O)c2nc(S(C)(=O)=O)ncc2Cl)cc1 | active: 1.17 µM
O=C1Nc2ccccc2Oc2cc(Oc3ccccc3)ccc21 | inconclusive [falling, single point]
CCc1ccc(NC(=O)c2cnn(-c3ccccc3)c2-n2cccc2)cc1 | inactive
COC(=O)c1c(NC(=O)c2ccc(S(=O)(=O)N3CCC(C)CC3)cc2)sc2c1CCN(C)C2 | inconclusive [falling, single point]
COc1ccc(Cn2c(C(=O)O)c(CNCCc3ccco3)c3ccc(OC)cc32)cc1 | inconclusive [falling, single point]
CCOc1cccc(NC(=O)C2CC(=O)N(CC)C(=Nc3ccc(F)cc3)S2)c1 (stereo not given) | inconclusive [falling, single point]
COC(=O)c1c(-c2ccc(Cl)cc2)noc1N1CCN(c2cc(C)ccc2C)CC1 | inconclusive [falling, single point]
C=Cc1ccc(Cn2c(C(=O)O)c(CNCc3ccc(F)cc3)c3ccc(C)cc32)cc1 | inactive
CCOc1ccc(OCC)c(NC(=O)C(NS(=O)(=O)c2cccs2)c2ccccc2)c1 (stereo not given) | inconclusive [falling, partial curve]

Compound | Potency
CCCN(CCC)S(=O)(=O)c1ccc(C(=O)Nc2cccc(-c3nc4ccccc4[nH]3)c2)cc1 | inactive
COc1ccc(-c2cc(C(=O)Nc3cccc(O)c3)on2)cc1OC | inconclusive [falling, partial curve, poor fit]
Cc1c(C(=O)OC2CCCCC2)[nH]c2c1C(=O)CC(c1ccccc1Cl)C2 (stereo not given) | inconclusive [falling, full curve, poor fit]
Cc1cc(C)n(-c2nnc(Nc3ccc(C(C)C)cc3)c3ccccc23)n1 | inconclusive [activator, partial curve, poor fit]
Cc1ccc2nc(-c3ccc(NC(=O)C(F)(F)F)cc3)sc2c1 | inactive
Fc1ccc(Nc2c3c(nc4nncn24)CCC3)cc1 | inconclusive [falling, single point]
CC(NC(=O)C1CCN(C(=O)N2CCOc3ccc(Cl)cc32)CC1)c1ccccc1 (stereo not given) | inactive
COCCn1c(=O)[nH]c2cc(C(=O)N3CCN(c4ccc(Cl)cc4)CC3)ccc2c1=O | inconclusive [falling, partial curve, poor fit]
CCN(CC)c1cc(C)c2cc(NC(=O)/C=C/c3ccccc3Cl)ccc2n1 | inconclusive [falling, single point]
Cc1cccc(N(C)S(=O)(=O)c2ccc(-c3cc(C)no3)s2)c1 | inactive
Cc1ccc(S(=O)(=O)N2CCc3cc(C(=O)N(C)Cc4ccccc4)ccc32)cc1 | inconclusive [falling, partial curve, poor fit]
Cc1ccc(N2CC(C(=O)NCCS(=O)(=O)N3CCN(c4ccccc4F)CC3)CC2=O)cc1 (stereo not given) | inconclusive [falling, single point]
CCOc1ccc(N(Cc2ccccc2)C(=O)c2nc(SCC)ncc2Cl)cc1 | inactive
O=C(Cn1c(=O)n(-c2ccccc2)c(=O)c2ccc(C(=O)NCc3ccc4c(c3)OCO4)cc21)Nc1ccc(F)cc1 | inconclusive [falling, partial curve, poor fit]
COc1ccccc1Nc1c2c(nc3ccc(NC(=O)c4ccc(OC)c(OC)c4)cc13)CCCC2 | inconclusive [falling, single point]
COC(=O)C(NC(=O)CCc1c(C)nc2cc(-c3cccc(F)c3)nn2c1C)C(C)C (stereo not given) | inactive
CCOc1cccc(C(=O)Nc2ccc(-c3nc4cc(C)cc(C)c4o3)cc2)c1 | inconclusive [falling, full curve, poor fit]
CCCCN(Cc1ccco1)C(=O)c1cc2c(s1)-c1c(C)cccc1OC2 | inactive
COc1ccc(-n2c(SCc3nc(-c4ccc(Cl)cc4)no3)nnc2-c2ccncc2)cc1 | inactive
CCC(Sc1ncnc2sc3c(c12)CCCC3)C(=O)OCC(C)C (stereo not given) | inconclusive [falling, single point]
CCOc1ccc(-c2cc(CCCC(=O)NCCc3ccc(OC)c(OC)c3)no2)cc1 | inconclusive [falling, full curve, poor fit]
O=C(Nc1cccc(F)c1)C1CCN(S(=O)(=O)c2ccc3[nH]c4c(c3c2)CCCCC4)CC1 | inactive

Compound | Potency
CCC1CCCCN1CCCNC(=O)c1c(C)oc2ncn(CC(C)C)c(=O)c12 (stereo not given) | inconclusive [falling, single point]
CN(C(=O)CSc1nc2ccc(NC(=O)CCc3ccccc3)cc2s1)c1ccccc1 | inconclusive [falling, partial curve, poor fit]
Cc1ccc(NC(=O)NCC2CCN(Cc3cccc(Cl)c3)CC2)cc1Cl | active: 10.4 µM
COc1ccc(N2CCN(C(=O)c3ccc(Nc4nc5ccccc5n5nnnc45)cc3)CC2)cc1 | inactive
O=c1c2cc3c(cc2n(Cc2cccc(Cl)c2)c(=O)n1Cc1nc(-c2ccccc2)no1)OCO3 | inconclusive [falling, partial curve, poor fit]
CCOc1ccccc1NC(=O)CSc1ncc(S(=O)(=O)c2ccc(C(C)(C)C)cc2)c(=O)[nH]1 | inactive
O=C(CSC1=Nc2ccccc2N=C(c2ccc(F)cc2)C1)NCc1ccccc1 | inconclusive [falling, partial curve, poor fit]
O=C(NCCc1ccc(Cl)cc1)c1ccc(Cn2c(=O)c3cccn3c3cccnc32)cc1 | inconclusive [falling, single point]
COc1ccccc1NC(=O)c1c(NCc2ccc(C)o2)sc2c1CCC(C)C2 (stereo not given) | inconclusive [falling, single point]
N#Cc1nc(-c2ccc(COc3ccccc3)o2)oc1NCc1ccccc1 | inactive
CNC(=O)C1CCC(Cn2c(=O)[nH]c3ccsc3c2=O)CC1 (stereo not given) | inconclusive [falling, partial curve, poor fit]
Cc1ccc(C(=O)CC2(O)C(=O)N(CCc3ccccc3)c3ccc(Cl)cc32)cc1 (stereo not given) | inconclusive [falling, single point]
COc1ccccc1NCc1cccn1-c1nnc(N2CCOCC2)s1 | inconclusive [falling, single point]
COC(=O)c1c(SCC(=O)Nc2cc(C)cc(C)c2)[nH]c2ccccc2c1=O | inactive
CC(C)c1cnc2c(c1SCC(=O)Nc1ccccc1C(F)(F)F)c(=O)n(C)c(=O)n2C | inactive
CCOc1ccc(C2c3[nH]c4ccccc4c3CCN2C(=O)CCc2ccccc2)cc1 (stereo not given) | inconclusive [falling, partial curve]
COc1ccc(-n2c(SCC(=O)Nc3ccc(Cl)c(C)c3)nc3n[nH]c(C)c3c2=N)cc1 | inconclusive [falling, single point]
CCOC(=O)c1c(NC(=O)c2ccc(S(=O)(=O)N3CCC(C)CC3)cc2)sc2c1CCN(C)C2 | active: 14.7 µM
Cc1cc(C)cc(-n2ccnc2SCC(=O)Nc2nnc(C)s2)c1 | inconclusive [falling, partial curve, poor fit]
COC(=O)c1scc(-c2ccc(C)cc2)c1S(=O)(=O)Nc1cc(Cl)ccc1C | inconclusive [falling, single point]
CCc1cccc(OCC(=O)Nc2ccc(S(=O)(=O)Nc3cc(C)nc(C)n3)cc2)c1 | inconclusive [falling, partial curve, poor fit]
